Test results from publication PMC4336329 (PLoS ONE, 2015).
Hit rate of the full screen: of about 310,000 compounds, about 2,200 (0.71%) showed an effect of 50% or more. The effect is printed as a negative number. This is one part of the list.

Target: human ether-à-go-go-related gene (hERG) potassium channel (human, UniProt Q12809)
Test: primary screen, population patch clamp on CHO cells stably expressing hERG

human ether-à-go-go-related gene (hERG) potassium channel, sequence (Q12809 whole entry, looked up): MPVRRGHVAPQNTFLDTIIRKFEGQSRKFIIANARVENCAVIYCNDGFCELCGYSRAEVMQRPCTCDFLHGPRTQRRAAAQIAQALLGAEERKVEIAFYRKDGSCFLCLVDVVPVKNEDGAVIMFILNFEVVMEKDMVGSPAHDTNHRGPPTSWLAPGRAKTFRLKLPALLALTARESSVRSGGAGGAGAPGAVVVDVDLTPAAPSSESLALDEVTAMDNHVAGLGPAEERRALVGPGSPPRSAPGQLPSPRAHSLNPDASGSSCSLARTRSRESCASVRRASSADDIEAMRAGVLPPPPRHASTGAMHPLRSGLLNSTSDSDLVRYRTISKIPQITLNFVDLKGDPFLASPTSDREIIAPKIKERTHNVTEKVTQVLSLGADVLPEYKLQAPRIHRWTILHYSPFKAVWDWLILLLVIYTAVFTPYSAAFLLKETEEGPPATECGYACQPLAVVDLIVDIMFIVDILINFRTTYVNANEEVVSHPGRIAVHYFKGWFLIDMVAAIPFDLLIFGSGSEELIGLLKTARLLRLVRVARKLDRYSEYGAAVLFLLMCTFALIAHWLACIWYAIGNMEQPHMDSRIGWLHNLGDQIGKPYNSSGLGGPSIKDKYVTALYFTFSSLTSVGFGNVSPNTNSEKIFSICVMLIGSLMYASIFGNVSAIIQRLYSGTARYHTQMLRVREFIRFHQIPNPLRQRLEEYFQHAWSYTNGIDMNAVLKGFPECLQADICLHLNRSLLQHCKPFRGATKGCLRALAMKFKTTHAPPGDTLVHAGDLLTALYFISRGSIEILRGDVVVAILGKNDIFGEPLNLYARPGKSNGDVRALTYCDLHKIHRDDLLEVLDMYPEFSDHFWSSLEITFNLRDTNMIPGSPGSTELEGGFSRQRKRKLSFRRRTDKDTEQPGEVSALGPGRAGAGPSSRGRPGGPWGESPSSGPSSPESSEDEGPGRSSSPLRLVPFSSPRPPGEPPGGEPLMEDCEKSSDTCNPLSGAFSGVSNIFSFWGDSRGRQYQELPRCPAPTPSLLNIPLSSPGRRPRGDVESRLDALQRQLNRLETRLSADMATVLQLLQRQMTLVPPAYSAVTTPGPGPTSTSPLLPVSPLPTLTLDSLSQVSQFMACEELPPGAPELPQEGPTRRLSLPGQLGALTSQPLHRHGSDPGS

Row | Compound | hERG current change (%, negative = inhibition) at 1uM
1 | Cc1cc(C(=O)N/N=C/c2cccc3ccccc23)c(C)o1 | 12.5%
2 | Cc1cc(C)nc(SCC(=O)N/N=C/c2cccc([N+](=O)[O-])c2)n1 | 0.177%
3 | CC(N=C1NS(=O)(=O)c2ccccc21)C(=O)NCc1ccc2c(c1)OCO2 (centres unmarked) | 4.44%
4 | O=C(NC1CCc2ccccc21)c1cc(COc2ccc(F)cc2Cl)on1 (centres unmarked) | 0.491%
5 | O=C(Nc1cc(S(=O)(=O)N2CCOCC2)ccc1N1CCCC1)c1cnccn1 | 9.29%
6 | Cc1ccc(NC(=S)N2CCC(C(N)=O)(N3CCCCC3)CC2)c(C)c1 | 7.67%
7 | COCCn1c(-c2ccc(-c3ccc([N+](=O)[O-])cc3Br)o2)nc2c1c(=O)[nH]c(=O)n2CC(C)C | 4.99%
8 | COc1ccc(-c2c(-c3ccc(OC)cc3O)nc(C)nc2C(F)(F)F)cc1 | 7.05%
9 | CCCCCOc1ccc(CSC(=N)N)cc1[N+](=O)[O-].Cl | -3.45%
10 | COCCNC(=O)c1c(N)n(/N=C/c2ccc(F)cc2)c2nc3ccccc3nc12 | 8.7%
11 | Cn1c2[n+](c3ccc(Cl)cc3c1=O)Cc1ccccc1-2.[Cl-] | 9.34%
12 | Cn1c(C(=O)Nc2ccc3c(c2)OCO3)cc2sccc21 | 1.78%
13 | COC(=O)Cc1ccc(NC(=S)NCCSc2ccc(Cl)cc2)cc1 | 7.15%
14 | COc1ccc(OC)c(NC(=O)Cn2c(C)nc3ccccc3c2=O)c1 | 10.5%
15 | CC(=O)c1ccc(S(=O)(=O)N2CCN(C(C)=O)CC2)cc1 | 9.96%
16 | COc1ccccc1C(=O)NC(CCSC)C(=O)OCC(=O)N1CCCC1=O (centres unmarked) | 8.69%
17 | CCC1(CC)C(=O)C2=C3C1[C@H](C(=O)OC)C=C(C(=O)OC)C[C@H]3n1c(=O)n(-c3ccccc3)c(=O)n1[C@H]2C (some centres unmarked) | 8.7%
18 | O=C(CS(=O)CC(=O)NC12CC3CC(CC(C3)C1)C2)Nc1ccc(F)cc1 (centres unmarked) | 3.56%
19 | COc1cccc(-n2c(Cc3cc(=O)[nH]c(=O)[nH]3)nnc2SCC(=O)N2CCCCC2)c1 | 8.43%
20 | O=C(COC(=O)CCc1nc2ccccc2c(=O)[nH]1)NC(c1ccccc1)c1ccccc1 | 8.97%
21 | COc1cccc(Nc2nc3ccc(C(=O)c4ccccc4)cc3n3cnnc23)c1 | 9.11%
22 | O=C(O)C(=O)O.c1ccc(-c2cnc(SCCN3CCOCC3)n2CC2CCCO2)cc1 (centres unmarked) | 6.56%

Row | Compound | hERG current change (%, negative = inhibition) at 1uM
23 | COc1ccc(N2CCN(CCc3ccncc3)CC2)cc1 | 2.04%
24 | O=C(CCNC(=O)c1ccccc1Cl)Nc1cccc(S(=O)(=O)N2CCCC2)c1 | 11%
25 | COc1cccc(CNC(=O)C2CCCN(S(=O)(=O)c3c(C)n[nH]c3C)C2)c1 (centres unmarked) | 3.37%
26 | CCOCCc1nnc(NC(=O)Cc2c(F)cccc2Cl)s1 | 5.3%
27 | COc1ccc(CN2CCCC(C(=O)N3CCCC3)C2)c(OC)c1.O=C(O)C(=O)O (centres unmarked) | 8.35%
28 | O=C(Nc1cccc(-c2cn3cccnc3n2)c1)c1ccc(Br)o1 | 6.03%
29 | COCCCNS(=O)(=O)c1ccc2[nH]c(=O)[nH]c2c1 | -0.626%
30 | O=C(Nc1ccc2oc(-c3cccc4ccccc34)nc2c1)c1ncn[nH]1 | 5.11%
31 | CCOC(=O)C1CCCN(C(=O)c2ccc(C)c([N+](=O)[O-])c2)C1 (centres unmarked) | 9.1%
32 | Cc1cc(NS(=O)(=O)c2ccc(NC(=O)C3CCCCC3)cc2)no1 | 16.4%
33 | COc1cccc(C(=O)N/N=C(\C)CC(=O)Nc2ccc(N(C)C)cc2)c1 | 15.3%
34 | COc1ccc(CCN2C(=O)c3ccccc3C2(O)c2ncc[nH]2)cc1OC (centres unmarked) | 9.94%
35 | CSc1nc(C)nc2c1c(=O)n(C)c(=O)n2C | -4.06%
36 | O=C(COC(=O)c1cccc(NS(=O)(=O)c2ccc(F)c(F)c2)c1)NC(=O)NC1CCCC1 | 10.9%
37 | C=CCN1C(=O)CSc2ccc(C(=O)N3CCC4(CC3)OCCO4)cc21 | 4.55%
38 | Cn1c(=O)[nH]c(=O)c2[nH]c(CN3CCN(C(=O)c4ccco4)CC3)nc21 | 2.64%
39 | O=c1[nH]cc(N(CCO)CCO)c(=O)[nH]1 | 15.3%
40 | O=C(O)CCC(=O)Nc1ccc(/C=C/C(=O)C2CC2)cc1 | 15.3%
41 | Cc1c(NC(=O)C(C)OC(=O)c2cccc(S(=O)(=O)N3CCOCC3)c2)c(=O)n(-c2ccccc2)n1C (centres unmarked) | 2.19%
42 | Cc1cc(NC(=O)C2CC(c3c(F)cccc3Cl)=NO2)n(-c2ccccc2)n1 (centres unmarked) | 7.8%
43 | Cn1c(CCN2CCCCC2)nc2cc(NS(=O)(=O)c3ccc(Cl)cc3)ccc21 | -59.1%
44 | Nc1c(C(=O)CSc2nnc(-c3ccccc3F)o2)c(=O)[nH]c(=O)n1C1CC1 | 16.3%
